About 14,000 (4.5%) of roughly 310,000 compounds showed an effect of 50% or more. Effects have a minus sign here. The list shows a part of the results.
Biological target: human ether-à-go-go-related gene (hERG) potassium channel (human, UniProt Q12809)
Assay: primary screen, population patch clamp on CHO cells stably expressing hERG
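Also: peak tail current of the secondary pulse compared with the same well before compound.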

human ether-à-go-go-related gene (hERG) potassium channel, sequence (Q12809 whole entry, looked up): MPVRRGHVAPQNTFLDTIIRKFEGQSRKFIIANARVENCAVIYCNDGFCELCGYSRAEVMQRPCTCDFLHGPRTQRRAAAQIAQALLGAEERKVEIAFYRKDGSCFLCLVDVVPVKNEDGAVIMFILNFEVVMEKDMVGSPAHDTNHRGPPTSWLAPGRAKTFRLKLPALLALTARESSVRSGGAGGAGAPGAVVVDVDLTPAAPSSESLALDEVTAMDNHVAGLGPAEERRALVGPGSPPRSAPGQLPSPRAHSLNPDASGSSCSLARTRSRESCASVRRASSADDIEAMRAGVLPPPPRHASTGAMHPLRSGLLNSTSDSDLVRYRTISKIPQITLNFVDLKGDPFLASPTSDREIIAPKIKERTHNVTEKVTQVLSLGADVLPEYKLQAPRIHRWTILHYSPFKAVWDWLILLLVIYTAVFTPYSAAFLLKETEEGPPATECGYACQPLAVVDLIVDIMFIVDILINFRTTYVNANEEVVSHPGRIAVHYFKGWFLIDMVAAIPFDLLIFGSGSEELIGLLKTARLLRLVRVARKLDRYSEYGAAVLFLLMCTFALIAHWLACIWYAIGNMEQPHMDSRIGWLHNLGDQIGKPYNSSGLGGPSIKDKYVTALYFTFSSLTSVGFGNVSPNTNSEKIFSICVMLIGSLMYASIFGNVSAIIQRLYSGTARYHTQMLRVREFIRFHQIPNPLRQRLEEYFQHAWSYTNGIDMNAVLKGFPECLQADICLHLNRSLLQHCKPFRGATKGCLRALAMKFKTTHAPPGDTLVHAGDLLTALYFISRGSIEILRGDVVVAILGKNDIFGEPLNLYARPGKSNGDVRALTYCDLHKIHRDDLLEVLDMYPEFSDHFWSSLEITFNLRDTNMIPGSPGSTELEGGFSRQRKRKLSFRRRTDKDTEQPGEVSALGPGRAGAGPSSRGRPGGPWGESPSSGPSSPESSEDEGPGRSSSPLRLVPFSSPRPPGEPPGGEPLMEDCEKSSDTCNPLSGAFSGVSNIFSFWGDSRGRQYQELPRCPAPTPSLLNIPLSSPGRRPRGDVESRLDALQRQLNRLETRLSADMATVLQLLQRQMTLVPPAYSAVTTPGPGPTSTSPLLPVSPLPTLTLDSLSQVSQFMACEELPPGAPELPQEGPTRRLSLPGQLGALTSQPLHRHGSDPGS

Row | SMILES | hERG current change (%, negative = inhibition) at 10uM [%]
1 | Cc1ccc(SC(C)C(=O)Nc2ccccc2C(=O)N2CCOCC2)cc1 (stereo not drawn) | 3.02
2 | CCCN1Cc2cccc(C(=O)N3CCN(c4ccc(F)cc4)CC3)c2C1=O | -23
3 | COc1ccc(CCN(C)C(=S)NC(=O)c2ccc(F)cc2Cl)cc1OC | -20.4
4 | CCOc1ccc(C(=O)NCC2CCCO2)cc1OCC (stereo not drawn) | 35.6
5 | O=C(C1Cc2ccccc2CN1C(=O)c1ccccc1)N1CCN(c2ccccc2)CC1 (stereo not drawn) | -31.6
6 | Cc1ccc(-c2noc(-c3cc(C(C)(C)C)nn3Cc3ccccc3)n2)cc1 | 6.65
7 | CCOc1ccc(-n2cccc2C=O)cc1 | -4.93
8 | CSc1cc(C)n(-c2ccccc2)c(=S)c1C(C)=O | 10.7
9 | Cc1ccc(NC(=O)CCOc2ccccc2C)cc1F | 14.3
10 | O=C(COC(=O)c1ccc(Br)o1)Nc1ccc(Br)cc1 | 19
11 | CN1N=C2c3ccccc3CCC2C1c1ccc(F)cc1 (stereo not drawn) | 4.84
12 | COc1ccc(CN2CCN(S(=O)(=O)c3ccccc3)CC2)c(OC)c1OC | 3.14
13 | COc1ccc(C(=O)c2c(N)sc3c2CCN(C)C3)cc1 | 9.04
14 | COc1ccc(COC(=O)CCNC(=O)c2ccc(Cl)cc2)cc1 | -32.5
15 | COc1ccc(/C=C(/C#N)C(=O)Nc2ccc(O)cc2)cc1C(=O)O | 5.42
16 | COc1nnc(-c2ccc(C)c(S(=O)(=O)NC(C)C)c2)c2ccccc12 | -52.8
17 | CCOC(=O)N1CCc2c(sc(NC(=O)CN3CCOCC3)c2C(=O)Nc2ccccc2)C1 | -68.8
18 | COc1ccc(N(C(=O)C(C)C)S(=O)(=O)c2cccs2)cc1 | -14.4
19 | CCOC(=O)C1(C)NC(c2cc(OC)c(OC)c(OC)c2)C2C(=O)N(CC)C(=O)C21 (stereo not drawn) | 10.1
20 | Cn1c(=O)c2nc(-c3ccccc3)c(-c3ccccc3)nc2n(C)c1=O | -36.8
21 | O=C(NC(=S)NCc1ccco1)c1ccccc1[N+](=O)[O-] | 4.3
22 | Cn1c2c(c3ccccc31)CCSC2=O | -9.31
23 | Cc1oc(C(C)(C)C)cc1C(=O)NCc1ccc2c(c1)OCO2 | 13.9

Row | SMILES | hERG current change (%, negative = inhibition) at 10uM [%]
24 | Cc1ccccc1C(=O)NC1CCCN(Cc2ccccc2F)C1 (stereo not drawn) | -6.98
25 | Cc1csc(CNC(=O)c2cc(COc3c(C)cccc3C)on2)n1 | 11.7
26 | COc1ccccc1NC(=O)Nc1ccnn1C1CCN(C(=O)c2ccccn2)CC1 | 18.7
27 | OCCNc1cnc2ccccc2n1 | 11.3
28 | C=CCNc1oc(Cc2cccc3ccccc23)nc1C#N | -14.7
29 | S=C(NCC1CCCO1)c1ccc(Br)cc1 (stereo not drawn) | 9.54
30 | CC(=O)c1ccc(N2CCN(S(=O)(=O)c3c(C)[nH]c(=O)[nH]c3=O)CC2)cc1 | 24.3
31 | CCCOc1ccc(C2=CSC3=NCCN23)cc1Cl | -67.8
32 | Cc1ccc(-c2[nH]nc3c2C(C)C(C#N)=C(N)O3)cc1 (stereo not drawn) | 13.5
33 | COc1ccc(Cl)cc1/C=C(\C#N)C(N)=O | 15.3
34 | Cc1ccc(S(=O)(=O)N2CCOCC2)cc1NC(=O)COc1ccc(C(=O)c2ccccc2)cc1 | -41.8
35 | Cc1c(NC(=O)c2ccccc2F)c(=O)n(-c2ccccc2)n1C | 11.8
36 | COc1cccc(CC(=O)NN2C(=O)NC3(CCCCC3)C2=O)c1 | 11.8
37 | O=C(c1ccco1)N1N=C(c2cccs2)CC1c1ccc(F)cc1 (stereo not drawn) | -29
38 | O=C(/C=C/c1ccccc1)NC1CC2CCC1C2 (stereo not drawn) | 5.72
39 | Cc1ccccc1NS(=O)(=O)c1ccc(NC(=O)c2nc3ncccn3n2)cc1 | -2.17
40 | COc1cccc(N2C(=O)C3CCCN3C2c2ccc(F)cc2)c1 (stereo not drawn) | 6.88
41 | Cc1ccc(NS(=O)(=O)c2cccc(C(=O)N/N=C/c3c(C)nn(-c4ccccc4)c3N3CCCC3)c2)c(C)c1 | 2.92
42 | CCn1c(O)c(C=C2N=c3ccccc3=N2)sc1=S | 19.9
43 | Cc1ccccc1NC(=O)COC(=O)CCc1c[nH]c2ccccc12 | -0.38
44 | O=[N+]([O-])c1ccc2nc(C(O)C(O)c3nc4ccc([N+](=O)[O-])cc4[nH]3)[nH]c2c1 (stereo not drawn) | 4.69
45 | Nc1nnc(CC(=O)N/N=C/c2cccc(OCCOc3ccccc3)c2)s1 | 0.771
46 | CC(=O)C1=C(O)C(=O)N(C)C1c1ccccc1F (stereo not drawn) | 16.3

Row | SMILES | hERG current change (%, negative = inhibition) at 10uM [%]
47 | CC(=O)NC1(C(F)(F)F)C(=O)NC(C)=C1C#N (stereo not drawn) | -6.65
48 | CCOC(=O)Cc1nnc(NC(=O)CSc2nnc3c4ccccc4n(C(C)C)c3n2)s1 | -35.8
49 | CCNC(=O)N1c2ccc(OCC)cc2C(C)=CC1(C)C | -2.36
50 | CCN(C(=O)c1ccc(Cl)cc1[N+](=O)[O-])c1ccccc1C | -0.0432
51 | Cc1ccc(C)c(OCC(=O)Nc2ccc(N3CCOCC3)cc2)c1 | 0.741
52 | COCCN1C(=O)N[C@@H](c2cccc(C(F)(F)F)c2)[C@@H](C(=O)OC)[C@H]1C | 9.16
53 | S=C(NCc1ccco1)N1CCN(c2nc(-c3ccc(Cl)cc3)cs2)CC1 | 0.846
54 | COc1ccc(Cn2c(-c3ccc(Br)cc3)c[n+]3ccccc23)cc1.[Br-] | -8.08
55 | CCOC(=O)c1nnn(-c2nonc2N)c1CSc1ccccn1 | -1.78
56 | CC1=N/C(=C/c2ccc([N+](=O)[O-])cc2)C(=O)N1c1ccc(Cl)cc1Cl | 2.83
57 | Cc1ccc(-c2nc(N)n(C(=O)c3cccnc3)n2)cc1 | 10.2
58 | CCOc1ccc(CSC(=N)N)cc1[N+](=O)[O-].Cl | -65.5
59 | O=c1[nH]c(=O)n([C@H]2C[C@H](O)[C@@H](CO)O2)cc1C(F)(F)F | 11.9
60 | C/C(=N/O)c1ccc(Oc2cnccn2)cc1 | 16.5
61 | Cc1c(NC(=O)c2cc3ccccc3oc2=O)c(=O)n(-c2ccccc2)n1C | -5.53
62 | Cc1ccc(C(=O)Nc2ccccc2C(=O)O)cc1NC(=O)COc1c(C)cccc1C | 46.7
63 | O=C(CSc1nc2ccccc2s1)N1c2ccccc2Sc2ccccc21 | 4.79
64 | CC12CN3CC(C)(CN(C1)C3c1ccccc1)C2O (stereo not drawn) | 19.2
65 | Nc1nc(SCc2ccc3c(c2)OCCO3)n[nH]1 | 19.6
66 | COC(=O)C1CCN(C(=O)NC2CC(=O)N(c3ccc4c(c3)OCCO4)C2)CC1 (stereo not drawn) | -25.9
67 | Cn1c(-c2ccc(Cl)cc2)cnc1NCc1cc2c(cc1[N+](=O)[O-])OCO2.O=C(O)C(=O)O | -62.6
68 | S=C(Nc1ccc2nc(-c3ccccn3)c(-c3ccccn3)nc2c1)N1CCCCCC1 | -15.6
69 | Cc1ccc(C(=O)N/N=C/C=C/c2ccccc2)o1 | -47.7

Row | SMILES | hERG current change (%, negative = inhibition) at 10uM [%]
70 | COC(=O)c1sccc1NC(=O)Nc1cccc(OC)c1 | -21.8
71 | COC(=O)Cn1c(SCc2ccccc2)nc2ccccc21 | -13.8
72 | CC(C)C(=O)Nc1cccc(NC(=O)c2ccc(Cl)cc2Cl)c1 | -34.4
73 | O=C1CSc2ccc(C(=O)NCC(c3ccco3)N3CCCCC3)cc2N1 (stereo not drawn) | 2.48
74 | CCN(CC)S(=O)(=O)c1cc(C)ccc1SC | 12.1
75 | O=C(CSc1ccccc1)N/N=C/c1ccccc1O | 14.4
76 | CC(C)c1ccc(C(=O)OC2CCOC2=O)cc1 (stereo not drawn) | 8.15
77 | CCOc1cc(CNc2ccc(S(N)(=O)=O)cc2)cc(Cl)c1OC | -6.66
78 | COc1cccc(Cn2nnc3c(=O)[nH]c(C4CCCN(C(=O)c5ccccc5Cl)C4)nc32)c1 (stereo not drawn) | -28.6
79 | O=c1oc2ccccc2cc1NCc1ccccc1O | 5.37
80 | O=C(NNc1cc(Cl)ccc1Cl)C1CCC1 | -5.51
81 | Cc1ccc(NC(=O)c2ccc3c(SCC(=O)O)c4c(nc3c2)CCCC4)c(Br)c1 | 2.29
82 | CCn1c(-c2ccc(F)cc2)n[nH]c1=S | 11.4
83 | CCOc1ccccc1CNC(=O)C1CCCN(c2ncnc3c2nc2n3CCCCC2)C1 (stereo not drawn) | -51.6
84 | Cc1ccc(N2C(=O)CCC2(C#N)c2ccccc2)cc1 (stereo not drawn) | -2.12
85 | CC(=O)N1CCN(c2ccccc2NC(=O)COc2ccc(Cl)cc2Cl)CC1 | -22.3
86 | Cc1ccc(C(=O)C2=C(O)C(=O)N(Cc3ccco3)C2c2ccc(N(C)C)cc2)o1 (stereo not drawn) | 8.08
87 | COC(=O)C1=C(c2ccccc2)C[C@@H]2CC[C@H]1N2C(=O)NCc1ccccc1 | 5.68
88 | COc1ccccc1NC(=O)Nc1ccccc1Br | 17.6
89 | COc1ccccc1-n1c(SCC(=O)Nc2cccc(C(=O)O)c2)nnc1-c1ccccc1C | 3.56
90 | CCOC(=O)c1cnc(SCc2nc(N)nc(Nc3ccc(C)cc3)n2)nc1N | -28.8

Reference: PMC4336329 (PLoS ONE, 2015)
